The values below come from the antibiotic and cytotoxicity screens of Wong et al. (2023).

The list shows a part of the results.

In this experiment the test system is S. aureus RN4220. Kind of experiment: growth inhibition call (relative growth <= 0.2). The conditions noted are these: 50 µM.
As to `C[C@@H]1CN([C@H](C)CO)C(=O)c2cc(NC(=O)Cc3ccccc3)ccc2O[C@@H]1CN(C)C(=O)Nc1ccc(C(F)(F)F)cc1`, the growth inhibition call was “inactive”.

Consider `Cc1noc(C)c1NC(=O)Nc1ccc2c(c1)C(=O)N([C@@H](C)CO)C[C@H](C)[C@H](CN(C)C(=O)C1CCCCC1)OCCCC[C@@H](C)O2`, for which the growth inhibition call is “inactive”.

In the case of `C[C@@H]1CN([C@@H](C)CO)S(=O)(=O)c2ccc(C#CCN(C)C)cc2O[C@H]1CN(C)Cc1ccc2c(c1)OCO2`, the growth inhibition call is “inactive”.

In the case of `COc1ccccc1S(=O)(=O)N(C)C[C@H]1Oc2cc(C#CCC(C)C)ccc2S(=O)(=O)N([C@@H](C)CO)C[C@H]1C`, the growth inhibition call was “inactive”.

As to `Cc1ccc(S(=O)(=O)Nc2cccc3c2O[C@@H](CN(C)S(=O)(=O)c2cn(C)cn2)[C@H](C)CN([C@@H](C)CO)C3=O)cc1`, the growth inhibition call was “inactive”.

Turning to `C[C@@H]1CN([C@H](C)CO)C(=O)c2cc(NC(=O)Nc3ccc(F)cc3)ccc2O[C@@H](C)CCCCO[C@@H]1CN(C)C(=O)c1ccccc1`, the growth inhibition call was “inactive”.

As for `C[C@H](CO)N1C[C@H](C)[C@@H](CN(C)Cc2ccc(C(=O)Nc3ccccc3N)cc2)Oc2ccc(NC(=O)CCN3CCOCC3)cc2CC1=O`, the growth inhibition call is “inactive”.

Turning to `O=C(CCCCCCC(=O)N/N=C/[C@@H](O)[C@H](O)[C@H](O)CO)NO`, the growth inhibition call is “inactive”.

Take `CS(=O)(=O)CCNCc1ccc(-c2ccc3ncnc(Nc4ccc(OCc5cccc(F)c5)c(Cl)c4)c3c2)o1`: the growth inhibition call is “inactive”.

For `COc1ccc(S(=O)(=O)Nc2ccc3c(c2)C(=O)N([C@@H](C)CO)C[C@H](C)[C@H](CN(C)S(=O)(=O)c2cn(C)cn2)OCCCC[C@@H](C)O3)cc1`, the growth inhibition call is “inactive”.

As to `C[C@@H]1CN([C@H](C)CO)C(=O)Cc2cc(NC(=O)NC3CCCCC3)ccc2O[C@@H]1CN(C)Cc1ccc(Cl)c(Cl)c1`, the growth inhibition call is “inactive”.

As for `COc1ccc(S(=O)(=O)N(C)C[C@@H]2Oc3c(NS(=O)(=O)c4ccc(F)cc4)cccc3C(=O)N([C@@H](C)CO)C[C@H]2C)cc1`, the growth inhibition call was “inactive”.

Turning to `C[C@H](CO)N1C[C@H](C)[C@@H](CN(C)Cc2ccc(Cl)c(Cl)c2)Oc2ccc(NC(=O)Nc3ccccc3)cc2C1=O`, the growth inhibition call was “inactive”.

Take `NNC(=O)c1cccc(Cn2cccn2)c1`: the growth inhibition call is “inactive”.

In the case of `CC(C)(C)[S@@](=O)N1Cc2cc(C(=O)N3CCc4ccccc4C3)nc(-c3cccc(-c4ccncc4)c3)c2[C@H]1CCO`, the growth inhibition call was “inactive”.

As for `C[C@@H]1CN([C@H](C)CO)C(=O)c2c(c3ccccc3n2C)-c2ccccc2CO[C@@H]1CN(C)C(=O)N[C@H](C)c1ccccc1`, the growth inhibition call was “inactive”.

Turning to `C[C@@H]1CCCCO[C@@H](CN(C)Cc2ccc(C(=O)O)cc2)[C@H](C)CN([C@@H](C)CO)C(=O)c2cc(NC(=O)Nc3ccc(C(F)(F)F)cc3)ccc2O1`, the growth inhibition call was “inactive”.

With `C[C@H]1CN([C@@H](C)CO)C(=O)c2cc(Br)cnc2O[C@H]1CN(C)S(=O)(=O)c1ccc(F)cc1`, the growth inhibition call is “inactive”.

On to `C[C@@H]1CN([C@H](C)CO)C(=O)c2cc(NS(=O)(=O)c3ccc(Cl)cc3)ccc2O[C@H]1CN(C)S(=O)(=O)c1cn(C)cn1`, for which the growth inhibition call is “inactive”.

`O=C(CN1CCC2(CC1)OCCC[C@@H]2O)N1CCOCC1`: the growth inhibition call was “inactive”.

Regarding `Cc1noc(C)c1S(=O)(=O)Nc1ccc2c(c1)CC(=O)N([C@@H](C)CO)C[C@@H](C)[C@H](CN(C)Cc1ccncc1)O2`, the growth inhibition call is “inactive”.

Consider `C=C1c2cccc(O)c2C(=O)C2=C(O)C3(O)C(=O)C(C(N)=O)=C(O)C(N(C)C)C3C(O)C12.Cl` (centres undefined), for which the growth inhibition call is “inactive”.

Take `COc1ccc(S(=O)(=O)Nc2ccc3c(c2)CC(=O)N([C@@H](C)CO)C[C@@H](C)[C@H](CN(C)S(=O)(=O)c2ccc(F)cc2)O3)cc1`: the growth inhibition call is “inactive”.

`Cc1ccc(S(=O)(=O)N(C)C[C@@H]2OCCCC[C@H](C)Oc3ccc(NC(=O)NC4CCCCC4)cc3C(=O)N([C@H](C)CO)C[C@@H]2C)cc1`: the growth inhibition call was “inactive”.

As to `c1cnc2c(SCc3nc4ccccc4s3)cccc2c1`, the growth inhibition call is “inactive”.

`C[C@@H]1CCCCO[C@@H](CN(C)Cc2ccncc2)[C@@H](C)CN([C@H](C)CO)C(=O)c2cc(NC(=O)CCC(F)(F)F)ccc2O1`: the growth inhibition call was “inactive”.

For the compound `CC(=O)N1CCN(CC(=O)NS(=O)(=O)c2ccccc2)CC1`, the growth inhibition call was “inactive”.

Regarding `C[C@H](CO)N1C[C@H](C)[C@H](CN(C)S(=O)(=O)c2cccs2)Oc2c(NC(=O)c3cnccn3)cccc2C1=O`, the growth inhibition call was “inactive”.

Turning to `O=C1CCNC(=O)N1`, the growth inhibition call was “inactive”.
